Results taken from PubChem BioAssay AID686978 (National Center for Advancing Translational Sciences (NCATS), 2013).
Among all 420,000 compounds or so, about 64,000 (15%) were called active. Inconclusive results, whose numbers are uncertain, are shown with a selection of clear calls. The call rests on the fitted dose curve; in most records, active means well fitted inhibition curve with a large enough effect; inconclusive means small, poorly fitted or top-dose-only effect; inactive means flat fitted curve, though single readings scatter. Potencies of inconclusive entries are left out as doubtful fits.

Experiment: qHTS for Inhibitors of human tyrosyl-DNA phosphodiesterase 1 (TDP1): qHTS in cells in absence of CPT; further: nearly all actives have a fitted effect of over 55% in size
Details: DT40 Tdp1-/- hTDP1 cells, no CPT, ATP luminescence, 48 h; activity change, negative = growth inhibition: at 46.2 µM (top of the series) unless noted
Outline: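 Compound effects on proliferation are scored in DT40 Tdp1-/-;hTDP1 cells in the absence of CPT. ATP levels (CellTiter-Glo luminescence) are recorded after a ≥48 hr, 37 °C incubation.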
On the % scale 0 is the no-effect control and ±100 the full control effect; potency means the concentration at half of the fitted maximal effect; tags describe the fitted curve by direction and shape.

Row | SMILES | Potency | activity change, negative = growth inhibition
1 | COc1ccccc1Nc1nc(N)nc(CN2CCN(Cc3ccc4c(c3)OCO4)CC2)n1 | inconclusive [inhibitor, single point] | –
2 | O=C(Nc1cn(-c2ccccc2)nc1-c1ccc(Cl)cc1)c1ccccc1 | inconclusive [inhibitor, single point] | –
3 | CCOC(=O)c1c(C)oc2c1cc(NS(=O)(=O)c1ccc(C(=O)O)cc1)c1ccccc12 | – | inactive: -29.9%
4 | N#CCCN(C(=O)COC(=O)CCNS(=O)(=O)c1ccccc1)c1ccccc1 | – | inactive: 4.45%
5 | COc1cc2c(cc1Cl)/C(=C\CCN(C)C)c1ccccc1S2 | inconclusive [inhibitor, single point] | –
6 | CCOC(=O)c1ccc2nc(C)c3c(c2c1)OC(C)C3 (stereo not given) | – | inactive: -13.2%
7 | CC1=C(OC(=O)c2ccccc2)C(C)(C)C(c2ccc(Br)cc2)OC1=O (stereo not given) | inconclusive [inhibitor, single point] | –
8 | COc1ccc(OC(=O)c2nc(SCc3ccc(C)cc3)ncc2Cl)cc1 | – | inactive: -12.9%
9 | Cc1ccc(OCc2nc3ccccc3n2C(C(=O)Nc2c(C)cccc2C)C2CC2)cc1 (stereo not given) | inconclusive [inhibitor, single point] | –
10 | CCCCN(Cc1ccccc1)S(=O)(=O)c1cc(Br)cc2c1N(C(C)=O)C(C)C2 (stereo not given) | active: 13 µM | –
11 | O=C(N/N=C\c1cccc(F)c1)c1ccc(Cn2cc(Br)c([N+](=O)[O-])n2)o1 | – | inactive: -0.22%
12 | Cc1ccc2nc(-c3ccccc3)cc(C(=O)NCCCn3ccnc3)c2c1 | – | inactive: -17.6%
13 | CS(=O)(=O)Nc1cccc(C2=NN(C(=O)c3ccc(F)cc3)C(c3cccs3)C2)c1 (stereo not given) | – | inconclusive: -36% [inhibitor]
14 | Cn1c(Oc2ccc3c(c2)OCO3)nc2c1c(=O)n(Cc1ccccc1)c(=O)n2C | inconclusive [inhibitor, single point] | –
15 | CN(C(=O)c1cccc([N+](=O)[O-])c1)c1ccccc1C(=O)NCc1ccccc1 | – | inconclusive: -32.3% [inhibitor]
16 | CN1CCN(c2ncnc3c2ncn3[C@H]2CN(Cc3ccc4c(c3)OCO4)C[C@@H](CO)O2)CC1 | – | inactive: -25%
17 | CCc1ccc(N(C(=O)c2csnn2)C(C(=O)NC2CCCCC2)c2ccncc2)cc1 (stereo not given) | – | inactive: -12.5%
18 | Cc1cccc(C)c1OCC(=O)NCC1(N2CCOCC2)CCCCC1 | inconclusive [inhibitor, partial curve, poor fit] | –
19 | CCc1ccccc1NC(=O)C1=CC(c2ccc(OC)c(OC)c2)=NS(=O)(=O)N1C | inactive | –
20 | CCOC(=O)c1ccc(-n2c(N)c(C(=O)OC)c3nc4ccccc4nc32)cc1 | active: 7.31 µM | –
